Measured values as given in the supplement of paper PMC11417369.
± gives the standard deviation of the averaged measurements. Some of the results follow.

Each sequence was assayed on PfAP2-EXP AP2 domain (GST-tagged) (assay: gcPBM binding intensity (ln(normalized median fluorescence intensity)); higher = stronger DNA binding).
In short: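 Using an Agilent 4 × 180k array, primer-extended double-stranded 36-bp intergenic genomic probes and negative controls were exposed for 1 h to GST-fused P. falciparum DNA-binding domains expressed in E. coli. Binding was carried out in 1× PBS with 1% milk, 0.2 mg/ml BSA, 0.5% salmon testes DNA and 0.03% Triton X-100, and protein was detected with Alexa488 anti-GST antibody and a 488 nm scan. Binding intensity is the highest Masliner-normalised natural-log median intensity across replicate spots of either probe orientation.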

Row | Sequence | gcPBM binding intensity (ln)
1 | ACATTATATTTGGACTGTACTAATATATTGTTATAT [XGTACX_site5573] | 8.47 ± 0.32
2 | ATATATATATATATATGTACATATTGTATCTTATAC [XGTACX_site5466] | 10.2 ± 0.4
3 | TATACATATATATATTGTACATATTATATATATATA [XGTACX_site3286] | 9.655 ± 0.064
4 | TATAAATACGAACACACACACCTTATAATTACTACT [CACACA_site7827] | 8.71 ± 0.69
5 | TTATATTTAGTATATGCACACTTTATGTTTGTTATT [CACACA_site5163] | 8.71 ± 0.28
6 | AAGAAAGGTTAAACATGTACATAAATATTTTACATA [XGTACX_site5024] | 8.5 ± 0.099
7 | AAAAACCATTGGCACACACACATAATATATAATATA [CACACA_site4903] | 8.66 ± 0.61
8 | TCATTGAAAATTGTTGCACACATAATAATTAAATAT [CACACA_site8554] | 8.61
9 | ACACATATGTCTTCATGTACATAATATATAAATCTT [XGTACX_site3438] | 8.87 ± 0.46
10 | CATAAATCAGCCATAACACACATACATATATACATA [CACACA_site8025] | 8.52 ± 0.45
11 | TATCTTTTTATTTTTTATTTTTTTTTTATAATTTAC [XGTACX_negctrl_site414] | 8.53 ± 0.45
12 | TAAAGGTAGATATATTGTACATACACACCTATATAA [XGTACX_site6865] | 8.33 ± 0.3
13 | TATATATATACAGTTGCATGTTGTGTTTAAAATTTT [TGCATGCA_site816] | 9.575 ± 0.035
14 | TGTTAAAAAATGGATGCACACATTAAATAAAAAGTA [CACACA_site1660] | 8.79 ± 0.28
15 | TCTTGTTTATCAACAGCACACACAACAACAACAACA [CACACA_site8046] | 8.96 ± 0.35
16 | TTAATTAAAACGAATACACACATAAATATGTAAAAG [CACACA_site6707] | 8.63 ± 0.3
17 | ATATGTATAAGTATGTATATTTATTTATACTTATGT [GTGCAC_negctrl_site221] | 8.2 ± 0.37
18 | TATATATATATATAATGTACTTATATTTTTTTGAGG [XGTACX_site2638] | 10.1 ± 0.21
19 | AAAAAAAAAAAAAAAAGTACATATATATATTTATAT [XGTACX_site5893] | 8.45 ± 0.085
20 | TTATATTTATAAAATTGTATACCCCTTCTAACTTTC [CACACA_negctrl_site250] | 8.51 ± 0.44
21 | ATTGTGCTCATCAGCACACACAACATCATGTAATAA [CACACA_site1863] | 8.6 ± 0.28
22 | TATATATATGGTTTAACACACGAGATAAAAGTATAT [CACACA_site2867] | 8.68 ± 0.24

Row | Sequence | gcPBM binding intensity (ln)
23 | TTCTATTCACATTTTACACACGTCCATCGCATTTTA [CACACA_site3453] | 9.13 ± 0.47
24 | TTTTAAATTTAATTTACACACTTTTCATAGCATTGA [CACACA_site3794] | 8.39 ± 0.38
25 | TATATGGTATGTATTACACACATATCACATATAGAT [CACACA_site7426] | 8.28 ± 0.32
26 | AGCCATATCTTTTTTGCACACACTACAATAAAACAA [CACACA_site1650] | 8.8 ± 0.39
27 | AATGTAAAAGTAAACACACACATATATTTATACATA [CACACA_site7218] | 8.71 ± 0.32
28 | CATATGGCAATAATTACATGCAAAAAAAAAAAAAAA [TGCATGCA_site578] | 8.59 ± 0.34
29 | ACATTTAATGTTATATGTACATAATATTATAAGTAT [XGTACX_site1393] | 8.93 ± 0.41
30 | AAAAAAAAGAAAAACACACACATATATATATATAAT [CACACA_site4707] | 8.61 ± 0.52
31 | GTAAATCGACACATACGTACATACATTTATATATAT [XGTACX_site3143] | 8.93 ± 0.33
32 | ACAGACGTTCAAAGGTGTACGCAAAATGAATAATAT [XGTACX_site7565] | 8.93 ± 0.32
33 | TTCTTATTTAATGTATCACACACGAGAATAAAAAAT [CACACA_site8992] | 8.64 ± 0.4
34 | TTTCATGACAATGTTTGTACATAATAAAATATATTT [XGTACX_site7039] | 8.52 ± 0.29
35 | TAAACAGACATATAAACACACATACATACATACATA [CACACA_site7215] | 8.71 ± 0.47
36 | TTAAAAAGATGTCACTGTACATAAAACATAAAATAT [XGTACX_site2886] | 8.82 ± 0.4
37 | AAAAAAAAAAAAAAAACACACATAAAACTATAATAA [CACACA_site7758] | 8.53 ± 0.34
38 | GAAGAGACTTAGAAAACACACATACATAAGATAATT [CACACA_site5333] | 8.71 ± 0.45
39 | ATATGTATCTCATCGTGTACATGTATATAATATATA [XGTACX_site4139] | 8.66 ± 0.38
40 | ATATATCAAAATAATTGTACAAATTTTATATAATTT [XGTACX_site7249] | 8.37 ± 0.3
41 | TTAGAAAAATTATATATACACACTTATATTTATATA [CACACA_site2821] | 7.91 ± 0.38
42 | ATATAGTAAAGTTATACACACATGAATTTTCCCATG [CACACA_site6923] | 8.48 ± 0.32
43 | AATATAAATGTGATTACACACAACACATTTAAATGT [CACACA_site1212] | 8.49 ± 0.4
44 | GTCATATATAATTGTTGTACATTTTTATAATTATGT [XGTACX_site8091] | 8.86 ± 0.36

Row | Sequence | gcPBM binding intensity (ln)
45 | AATTTTCTTAAAATTTGTACGTATATATTTAATATA [XGTACX_site3906] | 8.45 ± 0.32
46 | TATATATACTATAACACACATACACCCAAAAAAAAA [CACACA_site536] | 8.73 ± 0.48
47 | AAAAAATTATATTATGCACACATCGTTATATATATA [CACACA_site1201] | 8.92 ± 0.099
48 | CTTATACATATATATAGTACATATATCATTTTTATG [XGTACX_site4462] | 8.62 ± 0.3
49 | GAATAAATAAGATACGTACACACATATACAAAATAT [CACACA_site3660] | 8.86 ± 0.31
50 | AAAAATAAATTTATATATTACAAGAACAAATATAGT [XGTACX_negctrl_site567] | 8.79 ± 0.42
51 | TTTTTTTAAAAAAAGGGTACATATATATATTTTTCT [XGTACX_site1066] | 8.53 ± 0.4
52 | AAAAGGAAAGGAAAGGGTACAATCCTATTATATTAT [XGTACX_site8652] | 8.49 ± 0.34
53 | ATAATATAAACGTATACACACAAGAGAAGCATAAAG [CACACA_site2889] | 9.15 ± 0.59
54 | GTATTACATGAGGACACACACAAAAAAAATATATAT [CACACA_site769] | 8.96 ± 0.49
55 | TTATTATAAAAATGTAGTACAATACTTTTTTTTTTT [XGTACX_site732] | 8.05 ± 0.31
56 | TAATTATTTTAAAAAGTGCATTAAAAGATATTAAAT [GTGCAC_site9694] | 8.7 ± 0.21
57 | TATATATCTATAAACACACACCAAAATTTGTGCTTT [CACACA_site7448] | 8.5 ± 0.35
58 | ATATATATATATTATATGCACACGTTAAAATTTCAT [CACACA_site709] | 9.69 ± 0.3
59 | ATATACTTTAAAGGTTAAGAAAGAAAAAAAAAAAAA [CACACA_negctrl_site956] | 8.52 ± 0.39
60 | ATAAAATGAACAAACACACACACATATATTTATATA [CACACA_site7181] | 8.69 ± 0.49
61 | AAATAAAAAGAAAAGAAAAAGAAAATAAAAAGAGAA [XGTACX_negctrl_site14] | 8.82 ± 0.52
62 | TGACATAATGTGTGTAGTACATATATCGTTATTTGA [XGTACX_site5152] | 8.34 ± 0.25
63 | TGAATAAATATAAAAGGTACACATATAAATATATAT [XGTACX_site6349] | 8.54 ± 0.28
64 | TATGTAGGTAAAAATTGTACTTTTTTTTTAATATTT [XGTACX_site2303] | 8.34 ± 0.35
65 | TAACTCTATTTTTTTGCATGCTGAAGCTATGAGTTT [TGCATGCA_site821] | 9.34 ± 0.47
66 | CACAAAAATAGACACACACACATATAAATAAATATA [CACACA_site6598] | 8.62 ± 0.47

Row | Sequence | gcPBM binding intensity (ln)
67 | ATAAAAATAAAATAAGGTACAGACGAAAAAATTGAA [XGTACX_site5097] | 9.07 ± 0.47
68 | TATATATTTCATAATACACACGAAAAAAAAAAAAAA [CACACA_site8972] | 8.7 ± 0.41
69 | ATAATATTATGTGTGAATATATCTTTAAAAAGGATA [GTGCAC_negctrl_site15] | 8.4 ± 0.41
70 | ATATATATTATATAGTGTACCTATGTATAATAATAT [XGTACX_site1683] | 8.41 ± 0.35
71 | TATATATATAAATACACACACACCGTCCGTGTTAAA [CACACA_site5623] | 8.855 ± 0.049
72 | ATATATATATATATATGTACACATATTATAAAAAAA [XGTACX_site8644] | 10.2 ± 0.32
73 | TATAAAATAAAAGTAAATATATATATATATATATAT [TGCATGCA_negctrl_site208] | 10.1 ± 0.3
74 | ATATATTATAATGATACACACAAGAAATAAAATTAC [CACACA_site3095] | 8.65 ± 0.14
75 | TTCTAGAAAACTGATCGTACAAATAAATATAGACAC [XGTACX_site2808] | 8.88 ± 0.28
76 | AATGCATACACATATTGTACTAAGCCATACAACACA [XGTACX_site305] | 8.69 ± 0.42
77 | AAAATAGGGATCACGTGTACATATAAAGTGACATAC [XGTACX_site8190] | 9.16 ± 0.49
78 | TTTGACATACCTCTTGCATGTGAAAAACTTTTCGCT [TGCATGCA_site364] | 8.87 ± 0.3
79 | ATATATAATATTTATTGTACTATTTTATTTTTATAA [XGTACX_site705] | 8.41 ± 0.27
80 | AAAAAAGACCATGTTAGTACATAAGATTTTTTTCAT [XGTACX_site4298] | 8.31 ± 0.41
81 | AATACGTTATTATTTTGTACATATAAATAATAAGTT [XGTACX_site815] | 8.43 ± 0.37
82 | AACATACGAATATTCACACATAAATATATAAATCGC [CACACA_site4672] | 8.64 ± 0.42
83 | ATTTCTATTTGGGTTAGTACATATAAGTCTATTTTC [XGTACX_site3234] | 8.62 ± 0.42
84 | ACTCTTTTAACGCAAAGTACTTTTTAAAATATTTCG [XGTACX_site7534] | 9.04 ± 0.4
85 | TATTATATATATATCACACATATATTCATGTACATA [CACACA_site5432] | 8.63 ± 0.45
86 | TTTTTTTTTTCTTTTTGTACATATTCATAACAAGTA [XGTACX_site2784] | 8.55 ± 0.44
87 | TATATAATCGAGTGCACACACAAAAAAAAAGTGAAC [CACACA_site1483] | 9.18 ± 0.49
88 | AGATGATATACGTAAACACACAAATAAAAAAAATTT [CACACA_site3327] | 8.63 ± 0.61
